The full ranking holds about 33,000 sequences; the median of “E-score (-0.5 to 0.5)” is about -0.041, and the highest 2% start at about 0.37. The list shows a part of the results.
target: T1, Ecm22 (UniProt Q05958); assay: PBM E-score (8-mer binding enrichment) (E-score (-0.5 to 0.5)); higher = stronger / more preferred TF binding; most listed sequences are background and not binding sites; settings: protein concentration: 200 nM; construct: GST-full length
T1 sequence: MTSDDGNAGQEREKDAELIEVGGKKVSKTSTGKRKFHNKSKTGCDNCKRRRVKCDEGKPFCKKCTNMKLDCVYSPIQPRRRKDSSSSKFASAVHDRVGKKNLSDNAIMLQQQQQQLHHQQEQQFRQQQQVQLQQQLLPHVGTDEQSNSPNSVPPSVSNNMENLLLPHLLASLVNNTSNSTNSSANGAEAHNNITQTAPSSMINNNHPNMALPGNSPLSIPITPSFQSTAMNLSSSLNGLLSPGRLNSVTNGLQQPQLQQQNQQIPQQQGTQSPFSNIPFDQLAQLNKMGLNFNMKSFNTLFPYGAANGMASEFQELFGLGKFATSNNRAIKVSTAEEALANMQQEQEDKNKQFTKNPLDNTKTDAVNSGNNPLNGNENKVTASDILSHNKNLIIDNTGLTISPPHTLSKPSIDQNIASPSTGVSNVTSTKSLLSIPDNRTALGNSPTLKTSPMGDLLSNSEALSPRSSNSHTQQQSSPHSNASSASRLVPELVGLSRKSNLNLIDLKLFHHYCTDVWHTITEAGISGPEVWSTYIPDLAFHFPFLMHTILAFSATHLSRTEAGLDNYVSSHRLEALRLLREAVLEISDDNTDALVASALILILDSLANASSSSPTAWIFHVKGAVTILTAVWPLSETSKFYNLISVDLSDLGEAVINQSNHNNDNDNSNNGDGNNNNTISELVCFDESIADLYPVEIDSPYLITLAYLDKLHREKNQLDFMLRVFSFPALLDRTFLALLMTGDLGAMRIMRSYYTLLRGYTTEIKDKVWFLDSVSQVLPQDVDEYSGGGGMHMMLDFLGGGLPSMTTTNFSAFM
Method in brief: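 For each ungapped eight-base word taken together with its reverse complement, the Universal PBM Analysis Suite assigned an E-score. Binding data came from GST-tagged yeast transcription factors, applied at about 100-200 nM, on universal all-10-mer Agilent arrays made double-stranded by primer extension. Fluorescent anti-GST marked bound protein, and scans were normalised with masliner.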

Row | Sequence | PBM E-score
1 | CGCGTCGC | 0.168
2 | AAGGTAAA | 0.117
3 | TGACATAA | -0.113
4 | AACAATCT | -0.127
5 | ACAGGCTG | -0.306
6 | ACGGGAAA | 0.116
7 | GACAAGGC | -0.084
8 | AATAACTG | 0.0815
9 | GCTCGAGC | 0.0152
10 | CAGACTGA | 0.00847
11 | CTATTTCC | 0.0563
12 | CACACCCC | -0.25
13 | ACATACGT | 0.177
14 | ATAGGTCA | 0.135
15 | AGGGGGTG | -0.208
16 | CGCCTGAA | 0.118
17 | ACAATGAC | -0.162
18 | GAATTTAC | 0.207
19 | ACCCAAAA | 0.0343
20 | GGTACGTA | 0.319
21 | CAAGGCAA | -0.203
22 | TATATACA | 0.101
23 | ACCCGGCG | -0.0133
24 | AGCAGACT | -0.0102
25 | CCATATCC | -0.0494

Row | Sequence | PBM E-score
26 | AGGGCGAT | -0.0025
27 | GCCTTCGC | 0.0296
28 | CGTGCGAA | 0.276
29 | TAATGAAA | 0.0326
30 | TACTTACA | 0.101
31 | CAGGCGAG | -0.207
32 | AGGACATC | -0.0323
33 | CGCGCAGA | 0.197
34 | ATGGTGGG | -0.251
35 | GTTCAAGA | 0.154
36 | ATCGGAAA | 0.127
37 | GCCTACCC | -0.183
38 | CCGCCGTC | -0.141
39 | GCCCTACC | -0.0928
40 | ATGGAGCA | -0.12
41 | AACTCCTC | 0.00963
42 | GCGGCATA | 0.029
43 | CGACTTGA | 0.0591
44 | TGACAGCA | 0.0178
45 | CACACTAG | -0.0563
46 | ACGACGTG | 0.372
47 | ACGAATGA | 0.298
48 | GGCTACAA | 0.042
49 | AATCGGAC | 0.0723
50 | CCACTGTA | -0.00352

Row | Sequence | PBM E-score
51 | GGCGTGAA | 0.0712
52 | ACTGAGCG | -0.0588
53 | AAGTCCAC | -0.278
54 | GCGTATCA | 0.114
55 | CAGCGGCA | -0.168
56 | ACCAGTGA | -0.129
57 | GAATTGAA | -0.0812
58 | CTAGCCTC | -0.0983
59 | AGCGGCTG | -0.159
60 | GAAAGGGA | -0.0539
61 | GCACTAAC | 0.0508
62 | AGCACGAC | -0.012
63 | AATTTTGT | 0.0242
64 | ATCCTGGC | -0.0963
65 | AATTCAGC | -0.0163
66 | CACAGTCC | -0.24
67 | CTGTGCTC | 0.062
68 | GAACTCAA | -0.00037
69 | AGTATGCG | 0.2
70 | CCCCGCCA | 0.0635
71 | AGGCGTCG | 0.165
72 | CAGTTATG | -0.216
73 | AGACTTAT | -0.104
74 | GCACCCGA | 0.191
75 | AAATAATA | 0.104

Row | Sequence | PBM E-score
76 | AACGTGCT | -0.0499
77 | AGCGGTTG | -0.0954
78 | ACCAACGG | -0.0668
79 | CGGCAGAC | -0.0265
80 | ATGGTGCC | -0.132
81 | AGCAGGGG | -0.223
82 | GGACCCGA | 0.136
83 | GTGACAAA | -0.018
84 | TAAATACA | 0.077
85 | TCGTGAAA | 0.247
86 | TGTGCTAA | -0.0625
87 | GGACTTTA | -0.123
88 | AACTCTCG | 0.145
89 | AACCTTAG | -0.292
90 | CCGGCGCG | 0.021
91 | ATCATCAG | -0.086
92 | TATGTAAA | 0.0988
93 | AGTATCAA | -0.0773
94 | CGGTTGGA | -0.079
95 | AACAAGCA | -0.104
96 | CCGCTTCG | 0.0334
97 | ATTGCAGG | -0.00797
98 | TTTACAAA | 0.0649
99 | ATTGAAAT | 0.111
100 | AGATGGTG | -0.0816

Row | Sequence | PBM E-score
101 | AAACGTCA | 0.0512
102 | CCACTACG | 0.0757
103 | GGTGGGCA | -0.129
104 | GAGACAGA | 0.0492
105 | ATTCGGTC | 0.231
106 | CAACGCGA | 0.158
107 | GAACGAGA | 0.464
108 | GTTGGCCA | -0.24
109 | ACCGCGCA | 0.0956
110 | ACGGACGC | 0.0414
111 | CGTCAACC | -0.117
112 | GATATTTA | 0.0694
113 | TAGTTGCA | -0.0797
114 | CCACGACA | -0.0411
115 | CAGGGAGG | -0.326
116 | ACGCTGGA | 0.126
117 | CTGTTATC | -0.221
118 | GCCGCAGC | -0.11
119 | ACCTCATG | -0.2
120 | GGAGAATA | 0.0503
121 | CGTGCGGC | -0.00073
122 | CAGAAGCG | 0.0896
123 | GCGGGTGA | -0.233
124 | GTTTTAAA | 0.0416
125 | GTGTCCAA | -0.0564

Row | Sequence | PBM E-score
126 | GTAATTAC | 0.0498
127 | ACCGTAGC | 0.163
128 | AAGGGGAG | -0.265
129 | CGGGTAGA | 0.155
130 | CATCACCA | -0.143
131 | ATTTGCGA | 0.279
132 | CCTCCACG | -0.207
133 | CTGCAGTA | -0.184
134 | ACCTTTTC | -0.0752
135 | TCTAAAAA | -0.119
136 | TGAAAGAA | -0.0162
137 | CCCGCCGC | 0.0558
138 | GTTTGACA | 0.188
139 | CCATGTTC | -0.0183
140 | AGATCCGG | -0.0497
141 | GACGCGAA | 0.0723
142 | AAAAGAAT | 0.0163
143 | ACGCACGT | 0.15
144 | ACGATAGA | 0.257
145 | ACATAACG | 0.137
146 | CCTTTATA | -0.125
147 | CCCCGTGC | 0.00973
148 | TACGACAA | 0.455
149 | CGCGTACC | 0.255
150 | ACAGGTAT | 0.136

Row | Sequence | PBM E-score
151 | AGAAGATG | -0.0148
152 | ACCACTCC | -0.156
153 | CTACAGTC | -0.0606
154 | ATCGCGGA | -0.0158
155 | GTGCGAAC | 0.228
156 | AGCCTTTA | -0.0987
157 | AGAATGTA | -0.0174
158 | GGTTGCAA | 0.0115
159 | CCCGAACA | -0.0699
160 | CGAAATTC | 0.0905
161 | AAGTACCT | -0.0784
162 | ATGCTGGC | -0.254
163 | ACGATCAC | 0.182
164 | ATTGGTTA | -0.0128
165 | AATAGCCC | -0.234
166 | AACTGCTT | -0.169
167 | CGGAAATA | 0.15
168 | TACGCGGA | 0.21
169 | ACGCCGCG | 0.093
170 | CCCTAGAA | 0.0176
171 | ACACGTAT | 0.254
172 | CAGAACGG | 0.075
